From the supplement of paper PMC3334620
Over roughly 33,000 sequences, “E-score (-0.5 to 0.5)” has its median near -0.016; the highest 2% begin near 0.31. The list shows a part of the results.

These sequences were tested against Cst6 (UniProt P40535) (assay: PBM E-score (8-mer binding enrichment) (E-score (-0.5 to 0.5)); higher = stronger / more preferred TF binding; most listed sequences are background and not binding sites). Settings: protein concentration: 200 nM; construct: GST-DNA-binding domain.
How it was run: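 GST-tagged yeast TFs (full-length or DNA-binding domain) were made by PURExpress in vitro transcription/translation and applied at about 100-200 nM to universal all-10-mer Agilent arrays. The arrays were made double-stranded by primer extension, on fresh or once-stripped slides. Bound protein was detected with fluorescent anti-GST, and scans were normalised with masliner. Each ungapped eight-base word, pooled with its reverse complement, received an E-score (modified Wilcoxon-Mann-Whitney statistic) from the Universal PBM Analysis Suite.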

Sequence | PBM E-score
AACACTTA | 0.118
CATGGATA | 0.0149
GCGAAAAC | -0.043
ACAGTCAG | 0.0634
ACAATTAA | 0.319
CACCAACC | 0.00459
CACACTGG | -0.336
AGAAGCGA | -0.0835
CAATCAGA | 0.00832
CGTGTCGC | 0.171
GAGCCATA | -0.0796
AAACCATA | 0.0889
AAGAGCAC | 0.0219
CCACGCGA | -0.182
AAGATGAG | -0.0416
GAGCTAGC | -0.118
CTCGCTAC | -0.279
GATAGTGA | 0.226
CCAAGGGG | -0.0413
GGTAGAGA | -0.0187
AAATCGCG | 0.00064
CAATACCA | 0.145
TCTACTAA | 0.188
TGCGCGAA | 0.0786
TCCATCGA | 0.00711

Sequence | PBM E-score
ATGGATCC | -0.149
GATTCGAC | 0.00076
ATGGGGTA | 0.0349
TCGGAAGA | -0.0183
GTACCAAA | 0.123
GGGTTGTA | -0.143
CGAGGACG | -0.269
AACCTCAA | 0.0495
CATATGCG | 0.0237
GGCTCTTA | -0.132
GTCCGGTA | -0.153
ATTTACCG | 0.196
CGTATTTC | 0.174
AGTTATTC | -0.0663
ATACAGTG | 0.00221
ACTTGGTA | 0.0789
CTGGGGAC | -0.341
GGGGTACC | -0.352
AGTGGTTA | 0.0401
AGGGTAGG | -0.213
CCATACGC | -0.0414
AAGCCTTA | -0.0547
GTCGTGCA | -0.0895
AAAGACTG | -0.116
GCGGCGAA | 0.174

Sequence | PBM E-score
TAGTAGAA | 0.0675
ATTGTAGA | 0.141
GGGCTTAA | -0.175
CAACTGGC | -0.0581
CCTCCACC | -0.344
GAGATCGA | 0.0615
GCTGACCC | -0.241
ACGATCAA | 0.135
ACGGAGCA | 0.0622
ACTTTACT | 0.0846
CTAGTAGC | -0.13
CCAGCGGC | 0.0699
GCCCAGAA | -0.282
CCTTAGCG | -0.2
AAGGTCTA | -0.162
AATCGCAT | 0.0108
ATTGAAGC | -0.0635
CCAACACA | 0.0605
TATTTGAA | 0.132
ACTCATAC | 0.193
CTTAGACA | -0.0357
CCGCTGAA | -0.0652
CCTGCTCA | -0.211
ACTACGAG | -0.0759
GCCTTGAC | -0.0781

Sequence | PBM E-score
AAAAAGGT | 0.14
AAGTAACA | 0.177
AACGCGAA | 0.0569
GTCGAGTA | -0.0624
GTTAGACA | 0.176
ACGCCGCC | 0.124
AGTGAGTA | 0.245
CACTTTTA | 0.127
AATGCGTG | 0.0591
AATCCGGA | 0.0186
CGCCTCAA | -0.0366
CGTGTGTA | 0.0401
ATAACTAT | 0.0985
GGCATGAC | 0.245
TACTAATA | 0.222
GCGCGCAC | 0.178
CGGTGACG | 0.476
CTCATCTC | 0.144
AGCGTACG | -0.092
AGGGTCAT | -0.0579
AACGTCGT | 0.0196
GTGTAGTA | -0.0865
CTGGCTGA | -0.14
ACCTTAGC | -0.049
CCGTAAGA | -0.0536

Sequence | PBM E-score
CTAGAACA | -0.0144
AACCCCGA | -0.224
TGAGCGAA | 0.155
GGGCCCCC | -0.464
TGGTCCAA | -0.123
CTAGGGAG | -0.232
AGGTAGGA | -0.158
GACCTAAA | 0.174
GAAAGCAA | 0.131
ACACGATA | 0.0602
GAGAGCTC | -0.287
AGATCCAG | -0.182
ATCAGTTC | -0.0191
AATCGCGT | 0.0992
CTCCACTA | -0.123
AGTTGGAA | 0.0986
AATCGGTA | -0.0316
TCACCTAA | 0.203
GAATGTGA | 0.064
CATTCGCA | -0.0508
CCCACCAA | -0.0615
AAGGCCCT | -0.128
CTCAAAGC | -0.0428
AGTCGCAA | 0.0563
ATTAATAG | 0.281

Sequence | PBM E-score
ATAGGGGC | -0.222
CCGTGAGC | -0.0801
ACCGTTCC | 0.0197
AGAGACGA | -0.061
GCAGTGGC | 0.0207
CACCAGTA | -0.106
AAACGTCG | 0.0736
AATTATGT | 0.304
GAACTGGC | -0.112
CCGAATCG | 0.0572
AGACCACA | -0.204
AGAAGAGC | 0.0175
ACTACGCG | 0.0281
CCCGTCCC | -0.357
CGAGCATA | -0.0618
GTAACTGA | 0.152
CAAGGCTC | -0.227
AAGTGCCA | 0.0331
GTTGTGGA | -0.0234
CGAAAAAC | 0.151
GGATGCAA | -0.129
AAACTGGA | -0.134
CATTACAA | 0.225
TCAACCGA | 0.178
CAGTATGG | -0.15

Sequence | PBM E-score
CGATCGTC | 0.146
CCACAGTC | -0.348
CAGCGTAA | 0.102
AAACATAT | 0.209
ACACTCGG | -0.0878
GCTGGGAC | -0.203
ATACACTG | 0.0899
GACATACC | 0.121
GCACCCTA | -0.131
AATCCGTA | -0.0522
AATCTTTC | 0.0764
GTATGAAC | -0.00346
AATCACTG | 0.214
GGTTATAC | -0.0248
CACGTCTA | -0.0114
CGGTGCGC | -0.144
CACTGCTC | -0.0159
AAGACACT | 0.0684
AGGTCTGG | -0.155
ATATACCC | -0.00756
CGCGAGCG | -0.112
ATGAGAAT | 0.137
CTATACAG | -0.0654
CGCACGAG | 0.00379
AGTTCTTA | 0.0169

Sequence | PBM E-score
AGGCATCA | 0.0426
CGAAGAGA | -0.0371
ACGCCCAG | -0.176
CCGCACCC | -0.0355
CGCCGACC | -0.336
TCAGATAA | 0.174
AACAGTCC | -0.289
AGATCGCA | -0.00761
AGGAAGCG | 0.00262
ACGGACCT | -0.11
GGCGGGCA | -0.0394
AGAAGGTG | -0.0205
AGTAGGAG | -0.237
GGGGTAAA | 0.0414
AGAAAGCT | 0.0476
CCGCTAGA | -0.37
GGGACTGA | -0.222
CTGGATGA | 0.0796
CCTGCATC | -0.109
AATGCCAG | -0.183
ACGATACT | -0.0933
ATGCGTAG | -0.061
CGGCGAGA | 0.00749
ATGCCACC | -0.15
CTACATAC | 0.055

Sequence | PBM E-score
ATTATAGC | -0.0389
CAGTGGAC | -0.111
ATGCCTCA | 0.11
CGGAGCAG | -0.15
GCTGGCGA | -0.187
TAGTCGAA | 0.0626
AGTACGAA | 0.195
CGCCAGCA | -0.0789
TATATGCA | 0.0368
GTAGTAGA | 0.143
CAACAACA | 0.259
ATAGTTAC | 0.182
ACAGGTCG | -0.144
AACCAACC | -0.208
AATTGTGG | -0.0373
ATTAATCG | 0.172
GGCTCTGA | 0.0905
GTGGGGCA | -0.106
ATCACTTA | 0.194
CTGTAGGC | -0.195
TCTCATCA | 0.181
CACGTTAC | 0.143
CTTACTTA | 0.0601
CTACACTA | -0.00094
GGTGTAAA | -0.166

Sequence | PBM E-score
GGTTTCTA | 0.115
CTGTGTTA | 0.00958
ATTATCCA | 0.0715
GATTTAAC | 0.0628
CTACGGCA | 0.283
GTCGTTCA | 0.0498
CCGGCCAA | -0.232
AACAAAAT | 0.24
CAGGCTCC | -0.274
AATGAACG | 0.148
AATACGAG | 0.0303
AACCTACC | -0.164
AACCATCC | -0.0939
ACTAAGTC | -0.155
CCCGGCCC | -0.394
TATAAAGA | 0.127
ACTATCGC | -0.0879
CTTCTTAC | -0.0252
AAAGCTGT | 0.102
GCCAATAA | 0.0966
CAGCCCAC | -0.191
ACTCTCGA | -0.102
AGCTAGGG | -0.23
ACAGTCCG | -0.197
CGTATTAA | 0.112

Sequence | PBM E-score
ACCCTATG | -0.243
GCGGGGCC | -0.122
ATTGGGCC | 0.111
CCCAGCGG | -0.194
CGGCATTA | 0.3
GCATGGCC | -0.164
GCCTTCCC | -0.138
TCGTACGA | 0.146
ATATAATC | 0.231
AACCACGG | -0.066
CTGGGGGA | -0.311
CAATGGGG | -0.0393
CATAGTTC | 0.0666
CGAACACC | -0.134
AGGAGGAC | -0.316
CCGCTCTA | -0.0361
CAGGCTTA | -0.147
TCCGTAGA | -0.109
TAAACCTA | 0.0665
AGGTCACT | -0.0496
ACGGTAGG | -0.0442
AGCGAACC | -0.16
CTGGGTAC | -0.146
AGTGGAAC | -0.194
ACCAGTAC | -0.0199

Sequence | PBM E-score
ACTAGGCT | -0.0951
CACGCACC | -0.00414
AGGCTAGA | -0.259
CCTTCTAG | -0.0748
CTGTCTGC | -0.171
CTCAACCA | -0.00932
CGACCCCA | -0.0987
ACGGTTGG | -0.122
CTCATCAA | 0.134
CGATAGCA | -0.0491
ATGATCTA | 0.176
AAACCGTA | -0.119
AATCATCC | 0.113
ATTCGCTA | -0.0986
AGGGCGCC | 0.0238
CATACGGC | 0.321
GATATAGA | 0.0929
AGCGTTGA | -0.0573
GACGGTGC | -0.0546
GTGGCCAC | 0.0191
CGATGATC | 0.117
ATGTCACG | 0.396
ACTCGCGG | -0.106
AGGGAGGC | -0.139
AAGACGAG | -0.203

Sequence | PBM E-score
GAGGCAAA | 0.118
ATCGCTCG | -0.112
ACTACACT | -0.128
ACGATAAC | 0.119
TTTATAAA | 0.359
ACTGGAAC | -0.0423
AGTCGATG | 0.0201
AAGCCAGT | -0.315
ATGAGGTG | 0.174
TGGACACA | -0.0689
GCAGGGTA | -0.0581
AATCCCTG | -0.109
TTGAGCAA | -0.115
GCAGAGAC | -0.168
GAGTACGC | -0.123
CAGACCAC | -0.0133
TACCGAGA | -0.00302
AAGCCCCG | -0.196
GACTCAGA | -0.154
AATTTGAC | 0.15
ATTATAAA | 0.197
CCTAGCGA | -0.296
CGGTTAAA | -0.0654
ACTGCATC | 0.182
GAGGTTGA | -0.0414

Sequence | PBM E-score
CCCTCACA | -0.153
ACCATCTC | -0.0673
AGTGCGAT | 0.1
TCTGCCCA | -0.13
GGTTTTGA | 0.105
GGTTCAGA | -0.107
AGAGGACC | -0.322
CTTTTGGA | 0.00491
CCGATACC | -0.27
TCCAGAGA | -0.117
TCAATAAA | 0.169
CTGGACAA | -0.171
CAACCCAG | -0.231
ACCACCGA | -0.145
CGACAAAA | 0.163
CCTCCTGC | -0.167
CGCATTAA | 0.169
AACCTTGG | 0.0431
ATTGTTCG | 0.236
